In all, about 110,000 compounds were measured (“z-score”: median about -0.1, highest 2% from about 2 on). This is one part of the list.

The assay concerns the target Metabotropic glutamate receptor 8 (Rattus norvegicus) (UniProt P70579). Briefly: mGluR8 Gi/Go-coupled signaling modulation – cell-based, rat, thallium flux, HTS, primary screen (AID 488969). To be noted: HEK293 rat mGluR8, GIRK (G protein-gated inwardly rectifying potassium channel) thallium flux, FluoZin2; at 10 µM; stronger effect = higher value; submaximal glutamate (EC20) added with thallium.
Sequence of UniProt P70579 (P70579 whole entry, looked up): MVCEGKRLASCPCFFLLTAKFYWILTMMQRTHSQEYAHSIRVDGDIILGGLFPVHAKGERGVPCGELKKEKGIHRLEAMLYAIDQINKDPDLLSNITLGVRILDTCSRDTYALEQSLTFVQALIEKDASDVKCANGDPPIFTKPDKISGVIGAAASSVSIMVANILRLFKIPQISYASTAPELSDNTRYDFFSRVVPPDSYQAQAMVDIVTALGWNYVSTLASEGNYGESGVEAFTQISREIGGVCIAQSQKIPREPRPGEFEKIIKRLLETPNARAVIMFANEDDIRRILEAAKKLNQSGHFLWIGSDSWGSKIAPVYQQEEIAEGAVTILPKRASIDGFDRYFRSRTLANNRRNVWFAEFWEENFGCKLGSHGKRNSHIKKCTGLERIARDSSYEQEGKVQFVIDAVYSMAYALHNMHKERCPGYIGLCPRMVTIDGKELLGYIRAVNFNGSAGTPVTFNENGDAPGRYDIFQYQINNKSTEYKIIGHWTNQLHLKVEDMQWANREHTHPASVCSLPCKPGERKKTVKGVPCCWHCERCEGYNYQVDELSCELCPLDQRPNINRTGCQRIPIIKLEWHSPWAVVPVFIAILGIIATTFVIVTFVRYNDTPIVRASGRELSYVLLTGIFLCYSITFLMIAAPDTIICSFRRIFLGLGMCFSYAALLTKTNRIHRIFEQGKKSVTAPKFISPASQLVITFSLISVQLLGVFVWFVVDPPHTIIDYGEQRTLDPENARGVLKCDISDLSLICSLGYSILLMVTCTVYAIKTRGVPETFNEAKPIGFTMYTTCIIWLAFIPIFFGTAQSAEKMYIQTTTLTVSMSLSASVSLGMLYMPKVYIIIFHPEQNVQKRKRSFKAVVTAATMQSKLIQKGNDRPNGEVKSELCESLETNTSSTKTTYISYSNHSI
In the case of `CC12CN(C(=O)c3ccc(Cl)cc3)C3(C#N)CC1CCC23C` (configuration not stated), the z-score was -0.436. In the case of `O=C1OC(c2ccccc2)=N/C1=C/c1cccc(OC(=O)c2cccs2)c1` it was -0.225. `COc1ccc(Cc2nc3ccc(S(=O)(=O)N4CCOCC4)cc3[nH]2)cc1OC`: the z-score is -1.43. The same measure for `CCOc1ccc(N2C(=O)CC(SC(=NC)Nc3cccc(F)c3)C2=O)cc1` (configuration not stated): -0.588. In the case of `COc1ccc(N2CCN(CCNC(=O)Nc3ccc(Cl)cc3)CC2)cc1` it was 0.451; in that of `CC(=O)Nc1ccc2[nH]c(C)cc(=O)c2c1`, -0.295. The same measure for `CC(C)(C)C1CCC(OC(=O)CCC(=O)Nc2ccccc2)CC1` (configuration not stated): 0.804; for `CCOc1ccc(C(=O)Nc2ccc(NC(=S)NC(=O)CC)cc2)cc1Cl`: -0.266; for `CCOC(=O)c1cc(C)n(-n2cnnc2)c1C`: 0.148. `COc1cc(/C=N/OCC(=O)Nc2cc(C)on2)ccc1OCc1ccccc1` gave a z-score of -0.018. The same measure for `COc1cccc2c1C(=O)O/C2=C/c1ccc2c(c1)OCO2`: -0.319; for `CCn1cc(C(=O)NCCCOC)c(=O)c2cc(S(=O)(=O)N(C)C3CCCCC3)ccc21`: -0.838. In the case of `O=C(CSc1nnc(Cc2ccccc2)o1)NCCc1ccccc1` it was -0.513; in that of `COc1ccccc1NC(=O)COC(=O)[C@@H]1CCCN1C(=O)c1cccs1`, 0.249. In the case of `O=C1C2C3c4ccccc4C(c4ccccc43)C2C(=O)N1Cc1cccnc1` (configuration not stated) it was -0.974; in that of `O=C1NC(c2ccccc2)=NC1(NS(=O)(=O)c1ccccc1)C(F)(F)F` (configuration not stated), -0.0967. `O=S(=O)(NCCc1ccccc1)c1ccccc1` registered a z-score of -0.0483. The same measure for `FC(F)(F)c1cc(-c2ccc(Cl)cc2)nc(NCc2cccnc2)n1`: 0.00121.

Regarding `Cc1ccc2c(Cl)cc(Cl)c(OCC(=O)NC(=O)NCc3ccco3)c2n1`, the z-score was -0.127. The same measure for `Cc1c(Cl)cccc1NC(=O)COc1ccc(S(=O)(=O)N2CCOCC2)cc1`: -0.297; for `COCCn1nnnc1C(c1cccs1)N1CCN(c2cc(C)ccc2C)CC1` (configuration not stated): -0.182.

For the molecule `CCCC(=O)Nc1ccc2c(c1)nc(CN1CCN(C(C)=O)CC1)n2C`, the z-score is -0.287. The same measure for `COc1cc2ccccc2cc1C(=O)O`: -0.553.

In turn, `O=C(NCCN1CCC(Cc2ccccc2)CC1)C1CCCN(S(=O)(=O)c2cnc[nH]2)C1` (configuration not stated) had a z-score of 0.174. The same measure for `O=C(CSc1nnc(NC(=O)C2CC2)s1)Nc1ccc(F)cc1`: 1.56. `COc1cc(NC(=O)Nc2cccc(C(C)=O)c2)cc(OC)c1OC`: the z-score was -0.534.

`CCn1ncc(/C=N/N=C2\CCC3C4CCc5cc(O)ccc5C4CCC23C)c1C` (configuration not stated) displayed a z-score of -0.125.

Take `c1cc2c(cc1C1CCCCC1)c1c3n2CCN=C3CCC1`: the z-score was 0.729. Consider `Cc1cc(C)n(CC(=O)N/N=C/c2cccc([N+](=O)[O-])c2)n1`, for which the z-score was determined as 1.04.

Regarding `O=C1CCC(=O)N1CCOP1(=O)COc2ccccc2OC1`, the z-score amounted to 1.13. For the molecule `O=C(O)CCCC(=O)N1CCN(c2cccc(Cl)c2)CC1`, the z-score is -0.652. The same measure for `Cc1cc(NC(=O)COC(=O)c2ccc(S(=O)(=O)N3CCCc4ccccc43)cc2)no1`: -0.137.

Turning to `C/C(N)=C(/C#N)C(=O)COC(=O)c1ccncc1`, the z-score is -0.271. The same measure for `Cc1nnc(NC(=O)CCCN2C(=O)c3ccccc3C2=O)s1`: -0.000922.

In the case of `CCOC(=O)c1c(NC(=O)Cc2cccs2)sc(C(=O)NC2CCCC2)c1C`, the z-score was -0.101.

`Cc1nc2cc(S(=O)(=O)N3CCC(C(=O)O)CC3)ccc2n1C1CCCC1` had a z-score of 0.236. The same measure for `COC(=O)c1c(NC(=O)c2cnccn2)sc2c1CCC2`: 0.367; for `COc1ccc(S(=O)(=O)N2CCCC(C(=O)Nc3cccnc3)C2)cc1Cl` (configuration not stated): 0.085; for `Cc1ccc(S(=O)(=O)NC(C)(C)CSc2nnc(Nc3ccccc3)s2)cc1`: 0.099. The same measure for `CC1=Nn2c(nnc2-c2ccccc2Cl)SC1`: 0.265. The molecule `Cc1ccc(-c2noc(CCC(=O)NCCCN3CCN(c4ccc(F)cc4)CC3)n2)cc1` came in with a z-score of 1.06.

Molecule `O=C(NC12CC3CC(CC(C3)C1)C2)C1CC(=O)N(c2ccc(Br)cc2)C1` (configuration not stated) registered a z-score of -0.174.

`C=CCn1c(N)c(C(=O)OCC)sc1=S` yielded a z-score of -0.398. With `CCOC(=O)N1CCC(N2CC34C=CC(O3)C(C(=O)Nc3ccc(C)cc3)C4C2=O)CC1` (configuration not stated), the z-score was found to be 1.02. In the case of `CCNc1nc(NC(C)(C)C)nc(N2CCCC2)n1` it was -0.285; in that of `Cn1c(CCCNC(=O)c2cccs2)nc2ccccc21`, -0.219; in that of `N#CC1=C(SCc2ccccc2)NC(=O)CC1c1cccc(O)c1` (configuration not stated), 0.304.

Molecule `O=C(NCc1cccnc1)NC1(C(F)(F)F)Oc2ccc(Cl)cc2O1` (configuration not stated) registered a z-score of -0.363.

`CCCCN=C1NC(=O)C(CC(=O)NCCc2ccc(OC)cc2)S1` (configuration not stated): the z-score was -0.557. In the case of `O=C(N/N=C\c1cc(Cl)ccc1O)c1ccc(S(=O)(=O)N2CCCCC2)cc1` it was -0.759; in that of `COc1ccccc1-c1c(C)nn2c(N3CCN(c4ccccc4OC)CC3)cc(C)nc12`, -0.615; in that of `COc1cc(C(=O)OCc2cc3ccccc3[nH]c2=O)cc(OC)c1OC`, 0.0343. The molecule `CCOc1cc(NC(=O)c2ccco2)c(OCC)cc1NC(=O)COc1ccccc1` returned a z-score of -0.123. Turning to `CC(C)(C)c1cc(NC(=O)c2cccnc2)no1`, the z-score was found to be 0.249. The same measure for `CCC(=O)N1CCN(c2ccc(Cl)cc2NC(=O)Cc2ccc(Cl)cc2)CC1`: -1.56; for `CC1CCc2nc(NC(=O)C3CCCO3)sc2C1` (configuration not stated): -0.102; for `c1cncc(-c2nc3c(ccc4ccccc43)[nH]2)c1`: -0.688.

In turn, `Cc1cc(CNC(=O)Nc2ccc3c(c2)OCO3)nn1C` yielded a z-score of -0.218. In the case of `N#CC(c1ccccc1F)(c1ncc(C(F)(F)F)cc1Cl)N1CCOCC1` (configuration not stated) it was -0.0239. The same measure for `O=C(CSCc1nc2ccccc2[nH]1)Nc1ccc2ccccc2c1`: -0.0941; for `Nc1ccccc1OCCOCCOCCOc1ccccc1N`: 0.104.

`CC(=O)Nc1cc(C(=O)N2CCCC2)ccc1Sc1ccc(Cl)cc1` yielded a z-score of -0.0685. The same measure for `Oc1ccccc1C1N=C(c2ccccc2)NC(c2ccccc2)=N1`: 0.132; for `CC(C)CC(=O)NC(=S)Nc1ccccn1`: -0.211. The same measure for `COc1ccc(-n2c(C)cc(C(=O)COc3ccc(-n4cnnn4)cc3)c2C)cc1`: -0.144; for `c1ccc2c(-c3nn4nnnc4c4ccccc34)cccc2c1`: -1.88. On to `CC(=O)CC1OC(=O)C(Br)=C1NCc1ccccc1` (configuration not stated), for which the z-score was -0.0715. `Cc1cccnc1Nc1nc(-c2ccc(O)cc2)cs1` returned a z-score of -1.91. The same measure for `O=C(Nc1ccc(N2CCOCC2)nc1)c1ccc(F)cc1`: 0.0144; for `CCCc1ncc(C(O)(c2ccccc2)c2ccc(C)cc2)n1C` (configuration not stated): -0.703. As for `Cc1nc2c(C(=O)NCc3ccc4c(c3)OCO4)cnn2c(C)c1Cc1ccc(F)cc1Cl`, the z-score is -0.281. The molecule `Cc1cc(C)n2nc(SCC(=O)Nc3ccc(F)cc3)nc2n1` had a z-score of 0.0732.

The record behind these values is PubChem BioAssay AID488969 (Vanderbilt High Throughput Screening Facility, 2010).
